Test results reported in PubChem BioAssay AID1476 (National Center for Advancing Translational Sciences (NCATS), 2009).
Several values for one entry are separate records, joined by “and”; a condition that tells them apart may be missing. Equal entries are not always repeated. The campaign covered roughly 200,000 compounds. About 4,500 (2.2%) were called active. This list was built around the results that the source calls inconclusive (neither active nor inactive); the mix of calls is not that of the screen. Calls follow the shape of the dose curve; as a rule, active = well fitted inhibition curve with a large enough effect; inconclusive = small, poorly fitted or top-dose-only effect, or effect the other way; inactive = flat fitted curve, though single readings scatter. Potencies of inconclusive entries are doubtful fits and often do not repeat.

These molecules were tested against Cruzipain (Trypanosoma cruzi) (UniProt P25779) (assay: qHTS Assay for Promiscuous and Specific Inhibitors of Cruzain (without detergent)). Settings: purified cruzain, Z-FR-AMC fluorescence, no detergent.
Outline: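 Purified cruzain at 1.5 nM, pre-incubated 15 min with compound at room temperature in 100 mM sodium acetate pH 5.5, 5 mM DTT, 0.00005% Triton X-100. Reaction started with 2 uM Z-FR-AMC; AMC fluorescence increase over 60 s gives rate.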
Also: nearly all actives have a fitted effect of over 40% in size.
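For max response, negative = inhibition in this document: plate controls were enzyme without inhibitor for no effect and buffer without enzyme for full effect.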
Potency is read from the fitted curve at half-maximal effect; tags tell the direction and shape of the fitted curve.

Sequence of UniProt P25779 (P25779 whole entry, looked up): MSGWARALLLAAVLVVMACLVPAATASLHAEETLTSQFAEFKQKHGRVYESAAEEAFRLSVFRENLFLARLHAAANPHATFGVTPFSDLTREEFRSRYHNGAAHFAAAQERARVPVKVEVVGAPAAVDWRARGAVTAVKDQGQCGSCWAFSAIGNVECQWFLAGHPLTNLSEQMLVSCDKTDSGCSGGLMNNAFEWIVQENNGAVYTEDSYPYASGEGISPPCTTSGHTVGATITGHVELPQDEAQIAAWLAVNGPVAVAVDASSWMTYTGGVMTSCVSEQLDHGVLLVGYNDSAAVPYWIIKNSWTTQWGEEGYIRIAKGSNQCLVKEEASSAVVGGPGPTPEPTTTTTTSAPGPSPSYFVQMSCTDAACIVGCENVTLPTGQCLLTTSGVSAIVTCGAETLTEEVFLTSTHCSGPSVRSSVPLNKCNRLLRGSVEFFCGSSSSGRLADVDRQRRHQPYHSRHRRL

Row | Structure (SMILES) | Potency | max response, negative = inhibition
1 | COc1ccc(-c2cc(C(=O)Nc3sc4c(c3C#N)CCCC4)c3ccccc3n2)cc1 | active: 7.94 µM | –
2 | COC(=O)C(C)Oc1ccc2c(-c3cccc([N+](=O)[O-])c3)cc(=O)oc2c1 (configuration not stated) | – | inactive: 0.187%
3 | Cc1cccc(C(=O)N2CCC(=O)N([C@H](COCc3cccc(C(F)(F)F)c3)Cc3ccccc3)CC2)c1 | inconclusive: 35.5 µM [activator, single point] | –
4 | CCCCCCC(C)(C)c1ccc([C@@H]2C[C@H](O)CC[C@@H]2CCCO)c(O)c1 | inconclusive: 15.8 µM [activator, partial curve] | –
5 | CCCOC(=O)c1c(NC(=O)CSc2nc(-c3ccco3)cc(C(F)(F)F)n2)sc(C(=O)OC)c1C | inconclusive: 3.16 µM [inhibitor, partial curve] | –
6 | CCOC(=O)C1CCN(C(=O)CSCc2nc(-c3ccc(OCC)cc3)oc2C)CC1 | inconclusive: 31.6 µM [activator, single point] | –
7 | CCN(CC)Cc1c(NC(=O)c2ccc(OC)cc2)sc2c1CCCC2 | inconclusive: 3.16 µM [inhibitor, full curve] | –
8 | C=CCc1cccc(C=Nc2cc(Br)ccc2O)c1O | inconclusive: 25.1 µM [inhibitor, single point] | –
9 | O=C1CCCc2cc(S(=O)(=O)NCC3CCC(C(=O)NCc4ccccc4Cl)CC3)ccc2N1 (configuration not stated) | – | inactive: 1.73%
10 | COc1ccc(CCNC(=O)c2cc3c(s2)-c2ccccc2OC3)cc1OC | inconclusive: 39.8 µM [inhibitor, single point] | –
11 | CCc1cccc(C)c1NC(=O)C1CCN(c2nn3c(=O)cc(C)nc3s2)CC1 | inconclusive: 0.158 µM [inhibitor, single point] | –
12 | CN1C(=O)C2(c3ccccc31)N(C)CC(c1ccccn1)C21SC(=S)N(Cc2ccco2)C1=O (configuration not stated) | inconclusive: 39.8 µM [activator, single point] | –
13 | NC(=O)C1CCN(c2oc(-c3ccccc3F)nc2S(=O)(=O)c2ccc(Cl)cc2)CC1 | inconclusive: 31.6 µM [activator, single point] | –
14 | Cc1noc(C)c1S(=O)(=O)N1CCN(C(c2ccccc2)c2ccc(Cl)cc2)CC1 (configuration not stated) | inconclusive: 39.8 µM [inhibitor, single point] | –
15 | COc1ccc(-c2nnn(CC(=O)NCc3cccs3)n2)cc1OC | – | inactive: -3.72%
16 | COc1cccc(-n2cc(C(=O)Nc3cc(OC)c(OC)c(OC)c3)c3ccccc3c2=O)c1 | – | inactive: -6.87%
17 | COc1cc(-c2nnc(-c3ccc(S(=O)(=O)c4ccccc4)cc3)o2)cc(OC)c1OC | inconclusive: 25.1 µM [activator, partial curve] | –
18 | Cc1cccc(C(=O)Oc2ccccc2C2C[C@]3(C)CC(=O)NC3N2C(=O)c2cccc(C)c2)c1 (some centres not stated) | inconclusive: 39.8 µM [activator, single point] | –
19 | O=C(CCCNS(=O)(=O)c1cccs1)N1CCN(c2cccc(Cl)c2)CC1 | inconclusive: 31.6 µM [activator, single point] | –
20 | Cc1ccc(CC(=O)N2CCC(c3nc4c(nnn4Cc4ccccc4)c(=O)[nH]3)CC2)cc1 | inconclusive: 39.8 µM [activator, single point] | –
21 | Nc1nc(N)nc(CC(=O)O)n1 | – | inactive: 9.1%

Row | Structure (SMILES) | Potency | max response, negative = inhibition
22 | Cc1ccc2cc(C#N)c(N3CCCN(C(=O)C4CCCO4)CC3)nc2c1C (configuration not stated) | inconclusive: 31.6 µM [activator, single point] | –
23 | CCOC(=O)c1[nH]c2ccc(OC)cc2c1NC(=O)c1nonc1C | – | inactive: 4.06%
24 | CCN(CC)S(=O)(=O)c1cccc(C(=O)Nc2cc3oc4ccccc4c3cc2OC)c1 | inconclusive: 12.6 µM [inhibitor, partial curve, poor fit] | –
25 | CCCOc1ccc(N2C(=O)CC(N3CCN(S(=O)(=O)c4ccccc4)CC3)C2=O)cc1 (configuration not stated) | inconclusive: 31.6 µM [activator, single point] | –
26 | CCSc1nnc(NC(=O)c2csc3c2CCC(C)C3)s1 (configuration not stated) | active: 12.6 µM | –
27 | Cc1cc2cc3c(C)cc(=O)oc3c(C)c2o1 | – | inactive: -7.44% and inactive: 3.28%
28 | CCOC(=O)c1c(NC(=O)c2cccc(N3C(=O)CCC3=O)c2)sc(C)c1C | inconclusive: 31.6 µM [activator, single point] | –
29 | Cc1c(NC(=O)C(C)OC(=O)c2cc3c4ccccc4n(C)c3s2)c(=O)n(-c2ccccc2)n1C (configuration not stated) | inconclusive: 39.8 µM [activator, single point] | –
30 | COC(=O)c1ccc(C(NC(=O)OCc2ccccc2)/C(C)=C/[C@@H](C)C(=O)NCc2ccc(-c3ccccc3)cc2)cc1 (some centres not stated) | inconclusive: 31.6 µM [inhibitor, single point] | –
31 | COc1cccc(/C=C/C(=C2/C(=O)N(c3ccccc3)N=C2C)c2ccc(Br)cc2)c1OC | inconclusive: 10 µM [inhibitor, partial curve] | –
32 | CCCn1c(C)nc2c(NCCN3CCOCC3)nc(C)nc21 | – | inactive: -4.76%
33 | CC(=O)N1CCN(S(=O)(=O)c2cccc(C(=O)OCC(=O)NC(=O)c3cccn3C)c2)CC1 | inconclusive: 39.8 µM [activator, single point] | –
34 | O=C(c1ccc2c(c1)N(Cc1ccc(F)cc1Cl)C(=O)c1ccccc1S2)N1CCC2(CC1)OCCO2 | inconclusive: 25.1 µM [activator, single point] | –
35 | COC1=CC(=O)C(O)=C/C1=C\C=C\c1ccccc1 | – | inactive: -8.5%
36 | CSc1nc(C)c2c(n1)N(c1ccc(C(C)C)cc1)CC2 | inconclusive: 31.6 µM [activator, single point] | –
37 | O=C(CSc1nnc(-c2ccc(Cl)cc2)o1)N1CCN(c2ccccc2)CC1 | active: 15.8 µM | –
38 | COCCNc1oc(-c2ccc(COc3ccc(OC)cc3)o2)nc1C#N | inconclusive: 39.8 µM [activator, single point] | –
39 | Cc1ccc2c(c1)c(=O)c(C(=O)c1ccc3c(c1)OCO3)cn2Cc1cccc(F)c1 | inconclusive: 25.1 µM [inhibitor, partial curve] | –
40 | COc1ccc(-c2noc(CSc3nnc(Cc4ccccc4)n3-c3ccccc3)n2)cc1OC | – | inactive: 7.56%
41 | COc1ccc(NC(=O)Cn2c(=O)cc(C)c3c(C)nn(-c4cccc(Cl)c4C)c32)cc1OC | inconclusive: 3.16 µM [activator, single point] | –
42 | CC(=O)Nc1nc2ccc(-c3nc4ccccc4o3)cc2s1 | inconclusive: 15.8 µM [activator, partial curve] | –

Row | Structure (SMILES) | Potency | max response, negative = inhibition
43 | O=S(=O)(CCSc1nc2ccccc2s1)c1nc2ccccc2s1 | inconclusive: 39.8 µM [inhibitor, single point] | –
44 | Cc1ccc(C(=O)Nc2ccccc2-c2ccccc2)cc1S(=O)(=O)Nc1cccc(C)c1C | inconclusive: 39.8 µM [inhibitor, single point] | –
45 | O=C(Oc1ccccc1)N1CCC2(CC1)CN(c1ccccc1)C2 | – | inactive: -27.3%
46 | CO[C@]1(NC(=O)Cc2cccs2)C(=O)N2C(C(=O)O)=C(COC(N)=O)CS[C@H]21 | – | inactive: -14.7%
47 | CCn1cc(C(=O)NCc2ccco2)c(=O)c2cc(F)c(N3CCN(C(=O)c4ccco4)CC3)cc21 | inconclusive: 31.6 µM [activator, single point] | –
48 | COc1ccc(-c2[nH]c(-c3ccccc3)nc2SCC(=O)Nc2ccc3c(c2)OCCO3)cc1 | inconclusive: 31.6 µM [inhibitor, single point] | –
49 | O=C(c1ccc(-c2nnc(Nc3cccc(Cl)c3)c3ccccc23)cc1)N1C[C@H]2C[C@H](C1)c1cccc(=O)n1C2 | inconclusive: 31.6 µM [activator, single point] | –
50 | COc1cc2cc(C(c3nnnn3C(C)(C)C)N3CCc4ccccc4C3)c(=O)[nH]c2cc1OC (configuration not stated) | inconclusive: 39.8 µM [activator, single point] | –
51 | Cc1cc(C)cc(NC(=O)C(OC(=O)c2cccs2)c2ccccc2)c1 (configuration not stated) | inconclusive: 25.1 µM [inhibitor, single point] | –
52 | COC(=O)[C@@]1(Cc2ccccc2)[C@H]2c3cc(C(=O)N4CCCC4)n(Cc4cc(F)cc5c4OCOC5)c3C[C@H]2CN1C(=O)c1ccccc1 | inconclusive: 15.8 µM [activator, partial curve] | –
53 | Cc1ccc2[nH]c(C(=O)Nc3ccccc3)cc2c1 | inconclusive: 39.8 µM [inhibitor, single point] | –
54 | COc1cc(OC)c(NC(=O)C(NS(=O)(=O)c2cccc3nsnc23)c2ccccc2)cc1Cl (configuration not stated) | inconclusive: 39.8 µM [inhibitor, single point] | –
55 | O=C(/C=C/c1cccnc1)c1ccc(NC(=O)c2cccc(Br)c2)cc1 | active: 25.1 µM | –
56 | C/C(Cl)=C\Cn1c(=O)c2c(nc3n2CCS3)n(C)c1=O | – | inactive: -8.43%
57 | O=C(COc1cccc(NC(=O)c2cccc([N+](=O)[O-])c2)c1)c1ccc(F)cc1 | inconclusive: 31.6 µM [inhibitor, single point] | –
58 | CN(C)Cc1c(O)c(Cl)cc2c3c(c(=O)oc12)CCCC3 | active: 12.6 µM | –
59 | Cc1ccc(N/C=C/C(=O)c2ccc(C)cc2)cc1 | inconclusive: 39.8 µM [inhibitor, single point] | –
60 | CCCCCOc1ccc(NC(=O)Cc2csc(C)n2)cc1 | – | inactive: 1.24%
61 | COc1ccc(NS(=O)(=O)c2ccc3nc(COc4ccc(C#N)cc4)[nH]c3c2)cc1 | inconclusive: 20 µM [inhibitor, partial curve] | –
62 | Cc1ccc(NC(=O)C2CC(=O)n3c(nc4ccccc43)N2)cc1 (configuration not stated) | inconclusive: 39.8 µM [inhibitor, single point] | –
